Assay results reported in PubChem BioAssay AID686978 (National Center for Advancing Translational Sciences (NCATS), 2013).
The whole screen tested about 420,000 compounds, of which about 64,000 (15%) were called active. The shares of active, inactive and inconclusive entries below differ from those in the screen. Calls come from the whole dose curve; as a rule, active = well fitted inhibition curve with a large enough effect; inconclusive = small, poorly fitted or top-dose-only effect; inactive = flat fitted curve, though single readings scatter. Potencies of inconclusive entries are left out as doubtful fits.

Experiment: qHTS for Inhibitors of human tyrosyl-DNA phosphodiesterase 1 (TDP1): qHTS in cells in absence of CPT; note: nearly all actives have a fitted effect of over 55% in size
Conditions: DT40 Tdp1-/- hTDP1 cells, no CPT, ATP luminescence, 48 h; activity change, negative = growth inhibition: at 46.2 µM (top of the series) unless noted
In short: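 No-CPT arm: Tdp1-/-;hTDP1 DT40 cells (400/well) plus compounds, incubated ≥48 hr at 37 °C. Readout CellTiter-Glo luminescence.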
% is set by controls: 0 for no effect and ±100 for the full control effect; potency is the fitted concentration of half-maximal effect; tags give direction and shape of the fitted curve.

SMILES	Potency	activity change, negative = growth inhibition
Cc1cccc(NS(=O)(=O)c2ccc(-c3cnc(C4CC4)o3)cc2)c1	active: 0.58 µM	
COc1cccc(NC(=O)c2cc(C(=O)Nc3cccc(OC)c3)n(C)n2)c1	inconclusive [inhibitor, partial curve]	
CCOCc1c(C(=O)NCC(c2ccco2)N2CCCC2)oc2ccccc12 (centres undefined)	inconclusive [inhibitor, single point]	
Cc1ccccc1NC(=S)NCc1ccc(F)cc1	inconclusive [inhibitor, single point]	
C[C@H](CO)N1C[C@H](C)[C@H](CN(C)Cc2ccc(Oc3ccccc3)cc2)Oc2ccc(NC(=O)Nc3cccc4ccccc34)cc2CC1=O	inconclusive [inhibitor, single point]	
Fc1ccc(COc2ccc(-c3nnco3)cc2)cc1		inactive: -10.2%
COc1cccc(/C=C2\C(=O)N(c3cccc(C)c3)C(=O)c3ccccc32)c1	inconclusive [inhibitor, single point]	
O=C(NCC1COc2ccccc2O1)c1ccc(Br)s1 (centres undefined)	inconclusive [inhibitor, partial curve, poor fit]	
COc1ccc(-c2oc3ncn4nc(COc5ccc(C)cc5)nc4c3c2-c2ccc(OC)cc2)cc1	inconclusive [inhibitor, partial curve]	
CN(CCCCCCN(C)Cc1ccccc1O)Cc1ccccc1O	inconclusive [inhibitor, single point]	
S=C(c1ccccc1)N1CCCc2ccccc21		inactive: -16.8%
CC(C)CN(C(=O)c1cc(Cl)nc2ccccc12)c1c(N)n(Cc2ccccc2)c(=O)[nH]c1=O		inactive: 8.27%
CCOC(=O)C1(Cc2ccccc2C)CCCN(C(=O)CCc2cccnc2)C1 (centres undefined)	inconclusive [inhibitor, partial curve, poor fit]	
CCC(=O)Nc1ccc(S(=O)(=O)Nc2ccc(Cl)nn2)cc1		inactive: 19%
Cc1ccc(/C=N/NC(=S)NC(C)C)o1		inactive: -4.05%
O=S(=O)(NCCN1CCOCC1)c1cc(Cl)c(Cl)cc1Cl		inactive: -6.16%
CCOC(=O)CC1(NC(=O)C2CCC(=O)N(CCc3ccccc3)C2)CCCCC1 (centres undefined)		inactive: -4.33%
CCN(CC)C(=S)SCC(=O)c1ccc(Br)cc1	active: 23.1 µM	
COc1ccc(OC)c(-c2noc(N3CCN(c4ccc(C(C)=O)cc4)CC3)n2)c1	inconclusive [inhibitor, partial curve, poor fit]	
COCCNS(=O)(=O)c1ccc2c(c1)C(=NO)c1cc(S(=O)(=O)NCCOC)ccc1-2	inconclusive [inhibitor, single point]	
CCn1c(CNc2ccc(F)cc2)nnc1SCC(=O)N1CCCc2ccccc21	inconclusive [inhibitor, partial curve]	
Cc1ccc(S(=O)(=O)N2c3cc(C)ccc3OCC2C(C)(C)C)cc1 (centres undefined)	inconclusive [inhibitor, single point]	
CCOC(=O)c1c(NC(=O)CCCOc2ccc(Cl)cc2)sc2c1CCC2		inactive: -11.9%

SMILES	Potency	activity change, negative = growth inhibition
Cc1ccc(S(=O)(=O)N(CC(=O)N=Nc2c(O)[nH]c3ccccc23)c2cccc(C)c2)cc1	active: 20.6 µM	
COc1ccc(CNC(=O)c2sc(=O)n(Cc3ccc(-c4ccccc4)cc3)c2C)cc1OC	active: 11.6 µM	
C[C@@H]1CN([C@H](C)CO)S(=O)(=O)c2ccc(C#Cc3ccccc3F)cc2O[C@@H]1CN(C)C(=O)Cc1ccccc1	active: 13 µM	
N=c1n(CC(=O)c2cccs2)c2ccccc2n1Cc1ccccc1	active: 16.4 µM	
OC(COCc1ccc2c(c1)OCO2)CN1CCN(Cc2ccccc2)CC1 (centres undefined)		inactive: -15.9%
Cc1cc(C)nc(NS(=O)(=O)c2ccc(NC(=O)c3cc4c(=O)n5cccc(C)c5nc4n3C)cc2)n1		inconclusive: -39.2% [inhibitor]
Nc1n[nH]c(N)c1N=Nc1ccc2c(c1)OCO2	inconclusive [inhibitor, single point]	
O=C(/C=C/c1ccccc1O)c1ccco1	active: 20.6 µM	
CC(C)C(=O)NC(=S)Nc1ccccc1C(F)(F)F		inactive: -16.6%
O=C1/C(=C/c2ccc([N+](=O)[O-])cc2)C=C(c2ccccc2)N1c1ccc(O)cc1	active: 2.91 µM	
Cc1cnc(C(=O)Nc2cc(F)ccc2C)cn1	inconclusive [inhibitor, partial curve]	
O=C(CN1C(=O)c2cccc3cccc1c23)Nc1ccccc1	inconclusive [inhibitor, single point]	
CC(C)Oc1cccc(C(=O)Nc2ccc(CN3CCOCC3)cc2)c1	inconclusive [inhibitor, single point]	
O=C(NC1CCCN(c2ccc(C(F)(F)F)cn2)C1)c1ccnc(Cl)c1 (centres undefined)	inconclusive [inhibitor, single point]	
CCCOc1cccc(C2C(C(=O)c3cccs3)=C(O)C(=O)N2Cc2cccnc2)c1 (centres undefined)	active: 16.4 µM	
CCOC(=O)Cn1c(=O)oc2cc(S(=O)(=O)N3CCN(c4ccccc4OC)CC3)ccc21		inactive: -20%
Cc1cccc(C(=O)NC(C)c2ccc(-n3ccnc3)cc2)c1C (centres undefined)		inactive: 13.7%
Cn1cnnc1SCc1nc(N)nc(Nc2ccccc2)n1		inactive: -3.5%
CN(Cc1ccccc1)C(=O)c1[nH]cnc1C(=O)Nc1ccccc1	inconclusive [inhibitor, single point]	
Oc1ccc(O)c(C=NNC(=S)NC2CC3CC2C2C=CCC32)c1 (centres undefined)	inconclusive [inhibitor, single point]	
Cc1ccccc1-n1c(N)c(C(=O)Nc2ccc(F)cc2)sc1=S	inconclusive [inhibitor, single point]	
O=C(Nc1cc(S(=O)(=O)N2CCCCC2)ccc1N1CCOCC1)c1cc(=O)[nH]c2ccccc12	inconclusive [inhibitor, partial curve]	
COc1cc(C(=O)NCCCNc2ccc([N+](=O)[O-])cc2)cc(OC)c1OC	inconclusive [inhibitor, single point]	

SMILES	Potency	activity change, negative = growth inhibition
COc1ccc(C(=O)Nc2nnc(-c3cccs3)s2)cc1	active: 11.6 µM	
Cc1cc(C(=O)NC2CCCCC2)c(C)o1	inconclusive [inhibitor, single point]	
Cc1cnc(-n2ncc(C(=O)NCCN3CCOCC3)c2-c2cccs2)nc1-c1ccc(F)cc1		inactive: -28.8%
O=C1OCCN1C(=O)[C@H]1[C@H](c2ccc(Cl)cc2)C(c2cccc(Cl)c2)=NN1c1ccc(Br)cc1	inconclusive [inhibitor, single point]	
COC1C[C@@H](O[C@@H]2C(C)C(=O)OC(C)C(C)C(O)C(C)C(=O)[C@@]3(CO3)CC(C)C(OC3OC(C)CC(N(C)C)C3O)C2C)OC(C)[C@@H]1O (some centres undefined)		inactive: -0.826%
O=C1N(Cc2ccccc2)CCCC12CCCN(Cc1ccccc1)C2=O	inconclusive [inhibitor, single point]	
COC(=O)C(Cc1c[nH]c2ccccc12)N1CCS(=O)(=O)CC1 (centres undefined)		inactive: -21.9%
Cc1c(C(=O)NC(C)c2ccccc2)c(-c2ccccc2)nn1-c1ccccc1 (centres undefined)	inconclusive [inhibitor, single point]	
Cc1ccc(Nc2nnc(C3C(=O)N(C)C4(C)CC3c3cc(Br)ccc3O4)s2)cc1 (centres undefined)	inconclusive [inhibitor, partial curve]	
CCCCCCn1c(=O)n2n(c1=O)C[C@]1(OC(=O)NCC3CCCCC3)CN(S(=O)(=O)c3ccc(C)cc3)C[C@]1(O)C2	inconclusive [inhibitor, single point]	
COc1ccccc1-c1nc(=S)c(C(C)=O)c(C)[nH]1	inconclusive [inhibitor, single point]	
O=C(CSc1nnc(NC(=O)C2CC2)s1)Nc1ccccc1Cl	inconclusive [inhibitor, partial curve]	
COc1ccc(/C=C/C(=O)c2cc(F)ccc2OC(=O)c2ccccc2C)cc1OC	active: 1.03 µM	
COCCCNC(=O)c1ccc(Cn2c(=O)c3ccccc3n(Cc3ccccc3C)c2=O)cc1	inconclusive [inhibitor, single point]	
CCOc1ccc(-c2nnc(SCC(=O)Nc3cc(F)ccc3F)o2)cc1	inconclusive [inhibitor, partial curve]	
COc1ccc(NC(=O)c2c(-c3ccccc3Cl)noc2C)c(OC)c1	inconclusive [inhibitor, single point]	
Cc1[nH]c2ccc(F)cc2c1CCN(Cc1ccco1)C(=S)NC(C)(C)C		inconclusive: -33.1% [inhibitor]
O=C(CSc1ccccc1C(=O)NCc1ccccc1)NC1CCCCCCC1	inconclusive [inhibitor, single point]	
Cc1ccccc1NC(=O)c1c(C)oc2ccc(O)c(CN3CCC(C)CC3)c12	active: 23.1 µM	
Cc1ccc(C(NC(=O)C2CCN(CCOc3ccc(Cl)cc3)CC2)c2ccccn2)cc1 (centres undefined)	inconclusive [inhibitor, single point]	
CCCOc1ccc(C(=O)Nc2ccc3nn(-c4ccc(OC)c(Cl)c4)nc3c2)cc1	inconclusive [inhibitor, full curve, poor fit]	
COc1cc(NC(=S)Nc2cccc(C)n2)cc(OC)c1OC	inconclusive [inhibitor, single point]	
O=S(=O)(c1ccc(Br)s1)N1CCN(c2ccc(F)cc2)CC1	inconclusive [inhibitor, partial curve]	
